Assay results taken from article PMC4336329 (PLoS ONE, 2015).
About 2,200 (0.71%) of roughly 310,000 compounds showed an effect of 50% or more. The effect is printed as a negative number. The list shows a part of the results.

These molecules were tested against human ether-à-go-go-related gene (hERG) potassium channel (human, UniProt Q12809) (assay: primary screen, population patch clamp on CHO cells stably expressing hERG).
human ether-à-go-go-related gene (hERG) potassium channel, sequence (Q12809 whole entry, looked up): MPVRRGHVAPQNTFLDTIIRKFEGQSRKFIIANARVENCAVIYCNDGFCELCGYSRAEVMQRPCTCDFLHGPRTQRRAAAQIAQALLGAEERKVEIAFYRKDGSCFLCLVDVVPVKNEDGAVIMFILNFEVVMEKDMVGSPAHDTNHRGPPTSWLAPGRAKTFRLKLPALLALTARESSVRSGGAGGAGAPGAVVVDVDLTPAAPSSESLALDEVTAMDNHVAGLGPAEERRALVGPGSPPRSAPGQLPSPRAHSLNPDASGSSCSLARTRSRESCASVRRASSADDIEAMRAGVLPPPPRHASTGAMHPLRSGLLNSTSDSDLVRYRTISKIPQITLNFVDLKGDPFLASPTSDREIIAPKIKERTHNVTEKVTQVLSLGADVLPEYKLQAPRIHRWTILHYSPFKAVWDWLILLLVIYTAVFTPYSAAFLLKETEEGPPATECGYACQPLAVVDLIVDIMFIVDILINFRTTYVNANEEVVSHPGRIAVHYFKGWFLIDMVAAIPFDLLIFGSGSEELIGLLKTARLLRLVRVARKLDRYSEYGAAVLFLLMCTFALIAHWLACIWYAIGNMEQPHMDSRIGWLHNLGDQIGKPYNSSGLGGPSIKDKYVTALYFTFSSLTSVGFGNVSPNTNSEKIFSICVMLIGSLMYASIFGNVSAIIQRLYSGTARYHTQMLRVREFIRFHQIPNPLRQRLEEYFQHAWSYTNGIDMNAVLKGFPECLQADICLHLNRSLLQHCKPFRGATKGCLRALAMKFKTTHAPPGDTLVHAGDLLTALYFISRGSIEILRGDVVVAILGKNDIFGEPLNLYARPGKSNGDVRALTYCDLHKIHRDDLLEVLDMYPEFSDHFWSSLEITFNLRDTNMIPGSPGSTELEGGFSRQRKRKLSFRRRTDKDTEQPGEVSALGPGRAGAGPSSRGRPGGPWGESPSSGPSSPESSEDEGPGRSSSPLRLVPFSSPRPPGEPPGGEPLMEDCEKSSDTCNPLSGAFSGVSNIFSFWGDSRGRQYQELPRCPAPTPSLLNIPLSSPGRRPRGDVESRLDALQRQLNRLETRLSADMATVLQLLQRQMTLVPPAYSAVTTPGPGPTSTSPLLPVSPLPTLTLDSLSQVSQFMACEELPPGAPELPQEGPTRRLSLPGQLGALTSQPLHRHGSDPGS

SMILES	hERG current change (%, negative = inhibition) at 1uM [%]
CC(=O)Nc1ccc(NC(=O)CSc2ncc(C(=O)Nc3ccccc3)c(=O)n2C)cc1	4.38
COc1ccc(Cl)cc1C(=O)N1CCN(Cc2ccc3c(c2)OCO3)CC1	4.69
CCOC(=O)CC(=O)CSc1nc2cc(C)ccc2cc1C	15.7
COc1ccc(NC(=O)CSc2nnc(Cc3ccccc3)c(=O)n2N)c(OC)c1	6.18
O=C(O)CCC(=O)N1N=C(c2ccco2)CC1c1ccco1 (centres unmarked)	7.53
Cc1cc(C)n(CC(=O)NN)n1	15
Oc1ccc(C(=C(Cl)Cl)c2ccc(O)cc2)cc1	16.5
COC(=O)Nc1ccccc1C(=O)N1CCCCC1	5.84
Cc1ccc(-n2nc3c(c2NC(=O)c2ccc4c(c2)OCO4)CSC3)cc1	10.8
CCOC(=O)c1cc(-c2ccc(C#N)cc2)nc2c1c(C)nn2CCC#N	-12.9
CC(C)CCN1CCN=C1Nc1ccccc1	12.1
CCS(=O)(=O)NCc1cn2c(C)csc2n1	0.136
COc1cccc(NC(=O)CSc2nnc(CNC(=O)c3ccccc3F)o2)c1	9.6
OC(CNCc1ccccc1)(c1ccc(F)cc1)c1ccc(F)cc1	0.369
Cc1ccc(NC(=O)NCCCN2CCCC2=O)c(C)c1	9.02
CC1CCN(Cc2nc(-c3ccccc3)no2)CC1.Cl	9.88
CC(C)(C)OC(=O)NCCOC(=O)c1[nH]cnc1C(=O)NCc1ccccc1	7.08
Cn1nccc1C(=O)N1CCC2(CC1)OCCO2	11.7
c1ccc(-c2cn(C[C@H]3CC[C@@H]([C@@H]4CC[C@H](Cn5cc(-c6ccccn6)nn5)O4)O3)nn2)nc1	8.63
Cc1ccc2nc(NC(=O)CSc3nc4c(c(=O)n3C)SC(C)C4)sc2c1 (centres unmarked)	2.55
CC(=O)N1CCN(c2ccc(NC(=O)c3ccc([N+](=O)[O-])cc3Cl)cc2)CC1	12.7
COCCCn1c(=O)c2sccc2n2c(CCCC(=O)NCc3cccc(OC)c3)nnc12	4.16

SMILES	hERG current change (%, negative = inhibition) at 1uM [%]
COc1cccc2cc(C(C)OC(=O)Nc3ccc(C)cc3)oc12 (centres unmarked)	9.7
COc1ccc(/C=N/NC(=O)c2cccnc2)cc1	7.78
COc1cccc(NC(=O)CN2CCSc3ccccc32)c1	3.15
CCOC(=O)c1ccc(Nc2ncnc3nc[nH]c23)cc1	5.55
Cc1nn(-c2ccccc2)c(Cl)c1/C=C1\C(=O)N(C)C(=S)N1C	12.2
CCOC(=O)c1nnn2c1nc(Nc1cccc(C(F)(F)F)c1)c1ccccc12	13.8
Cc1cc(C(=O)OCC(=O)Nc2ccc(F)cc2F)c(C)o1	4.61
O=C(C1=C(O)C(=O)N(c2ncccn2)C1c1cccc(Cl)c1)c1ccco1 (centres unmarked)	17.6
C/C(=N/NC(=O)c1ccc(Br)o1)c1cccs1	11.3
O=C(NCc1ccc2c(c1)OCO2)c1cccc(Cl)c1	6.31
CN(C)c1ccc(C2Nc3ccccc3C(=O)N2CCN2CCNC2=O)cc1 (centres unmarked)	8.38
Cc1ccccc1N=C1NC(=O)/C(=C/c2cccnc2)S1	15.8
COc1ccccc1Oc1nc([N+](=O)[O-])nn1CC(N)=O	19.9
CCc1nnc(NC(=O)CSc2nc(C)cc(C)c2C#N)s1	8.79
COC(=O)C1=C(C)NC(C)=C(C(=O)OC)C1C1CC=CCC1 (centres unmarked)	15.7
CCOC(=O)N1CCN(C(=O)C(CC)n2nc(C)c3sc4ccccc4c3c2=O)CC1 (centres unmarked)	11.6
Cc1ccc(S(=O)(=O)N2CCN(CC(=O)N/N=C\c3ccc(O)c(O)c3)CC2)cc1	6.18
O=C(NCCNC(=O)c1ccccc1Br)c1ccccc1Br	11.3
CC(C)C(c1nnnn1C1CCCC1)N1CCCc2ccccc21 (centres unmarked)	6.29
Cc1cc(Sc2ccc([N+](=O)[O-])cn2)ccc1Br	4.44
O=C(Nc1ccc([N+](=O)[O-])cc1)N1CCc2ccccc2C1	3.69
O=C(Cc1cccs1)N1CCN(c2ccc(F)cc2)CC1	2.38
